± gives the standard deviation of the averaged measurements. Growth of baker's yeast expressing single-residue variants of Pneumocystis jirovecii dihydrofolate reductase in 8.8 or 44 µM methotrexate (about 75% and 90% inhibition of the wild type). Selection coefficient per generation; 0 = like wild type, above 0 = less sensitive, below 0 = more sensitive or loss of function. No active / inactive call per row; the paper calls resistant above 0.220 (8.8 µM) or 0.243 (44 µM) together with a significance test. At 44 µM about 15% of codons end with one read or none, so the lowest values are floors (replicate rank correlation 0.74; 0.94 at 8.8 µM).
B1: UniProt A0EPZ9; numbered along this chain (parent)
chain: MDWQKSLTLIVALTLSRGIGLKNDLPWKLKSDMMFFSRVTSGLLVTRSTGQMNVVLMGRKTWESLPAHSRPLKNRINVVISRQEVLDLGGGAYHARSLDDALALLSQIYDSTSKIQLNRVFVIGGGELCKAAMEHSRLNRIIATVIHNEVDCDVFFPIDFRSSQSCLPWRKQDHSVLEAWVGSKVPQGKINENGFIYEFEMWIRDI

Variants of: B1
Test: selection coefficient against synonymous wild-type codons (log2 per generation); higher = faster growth than wild type
Details: with Saccharomyces cerevisiae carrying the variant on a plasmid
Procedure: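 Pooled growth of yeast carrying single-residue variants of P. jirovecii dihydrofolate reductase (own DFR1 gene intact), two passages at 30 °C, three cultures, sequenced before and after. Codons with under 15 starting reads are left out; codons of one change are averaged.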

Row | Variant | selection coefficient against synonymous wild-type codons (log2) (methotrexate 8.8 µM) | selection coefficient against synonymous wild-type codons (log2) (methotrexate 44 µM)
1 | L72S | -0.326 ± 0.14 | -0.124 ± 0.14
2 | L72T | 0.0449 ± 0.12 | 0.203 ± 0.1
3 | L72V | 0.197 ± 0.061 | 0.235 ± 0.041
4 | L72W | 0.0671 ± 0.07 | 0.0548 ± 0.099
5 | L72Y | 0.47 ± 0.052 | 0.588 ± 0.077
6 | K73A | -0.0478 ± 0.065 | -0.0339 ± 0.058
7 | K73C | -0.23 ± 0.068 | -0.182 ± 0.14
8 | K73D | -0.0142 ± 0.022 | -0.062 ± 0.15
9 | K73E | 0.0706 ± 0.036 | 0.0313 ± 0.065
10 | K73F | -0.413 ± 0.09 | -0.165 ± 0.11
11 | K73G | -0.183 ± 0.1 | -0.136 ± 0.14
12 | K73H | -0.0199 ± 0.064 | -0.109 ± 0.09
13 | K73I | -0.205 ± 0.11 | -0.177 ± 0.046
14 | K73L | -0.246 ± 0.099 | -0.225 ± 0.15
15 | K73M | -0.279 ± 0.025 | -0.084 ± 0.04
16 | K73N | -0.161 ± 0.066 | -0.218 ± 0.038
17 | K73P | 0.113 ± 0.11 | 0.0681 ± 0.15
18 | K73Q | -0.0529 ± 0.023 | -0.0632 ± 0.17
19 | K73R | -0.145 ± 0.15 | -0.0449 ± 0.053
20 | K73S | -0.0745 ± 0.074 | -0.0292 ± 0.098
21 | K73T | -0.132 ± 0.081 | -0.0929 ± 0.044
22 | K73V | -0.172 ± 0.058 | -0.178 ± 0.037
23 | K73W | -0.261 ± 0.07 | -0.263 ± 0.2
24 | K73Y | -0.321 ± 0.077 | -0.0731 ± 0.083
25 | N74A | -0.318 ± 0.089 | -0.15 ± 0.13
26 | N74C | -0.391 ± 0.13 | -0.349 ± 0.052
27 | N74D | 0.0567 ± 0.026 | 0.0855 ± 0.026
28 | N74E | -0.296 ± 0.046 | -0.143 ± 0.18
29 | N74F | -0.525 ± 0.073 | -0.196 ± 0.051
